# Source: PubChem BioAssay AID686979 (National Center for Advancing Translational Sciences (NCATS), 2013)
# Values joined by “and” are separate entries in the source; they are usually repeats but may differ in a detail not shown here. Equal values may be shown once. Out of some 420,000 compounds screened, about 50,000 (12%) were called active. The inconclusive results got no clear call from the source; some entries with a clear call stand among them for comparison. Calls follow the shape of the dose curve; as a rule, active = well fitted inhibition curve with a large enough effect; inconclusive = small, poorly fitted or top-dose-only effect; inactive = flat fitted curve, though single readings scatter. Potencies of inconclusive entries are left out as doubtful fits.
# Experiment: qHTS for Inhibitors of human tyrosyl-DNA phosphodiesterase 1 (TDP1): qHTS in cells in presence of CPT; also: nearly all actives have a fitted effect of over 55% in size
# Conditions: chicken DT40 Tdp1-/-;hTDP1 cells + 20 nM CPT, ATP luminescence, 48 h; activity change, negative = growth inhibition: at 46.2 µM (top of the series) unless noted
# How it was run: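 Chicken DT40 Tdp1-/- cells complemented with human TDP1, 400 cells/well, exposed to compounds plus 20 nM camptothecin for at least 48 h at 37 C; viability read as ATP content by CellTiter-Glo luminescence.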
# % is scaled to controls: 0 for no effect and ±100 for the full control effect; potency is read from the fitted curve at half-maximal effect; tags tell the direction and shape of the fitted curve.
Structure (SMILES),Potency,"activity change, negative = growth inhibition"
O=C1C=C(NCc2ccc3c(c2)OCO3)CC(c2ccccc2)C1 (stereo not given),"inconclusive [inhibitor, single point]",
COc1ccccc1/C=C/C(=O)OCC(=O)NCc1ccco1,active: 18.4 µM,
CCc1ccc(NC(=O)CCS(=O)(=O)c2cccc3nsnc23)cc1,"inconclusive [inhibitor, single point]",
Cc1ccc(C(=O)Nc2sc3c(c2C(=O)O)CCC(C)C3)o1 (stereo not given),"inconclusive [inhibitor, single point]",
CCn1cc(C(=O)NCc2ccc(C)cc2)c(=O)c2cc(S(=O)(=O)N(C)C)ccc21,"inconclusive [inhibitor, partial curve]",
Cc1ccc(C(=O)Nc2cccc(C(=O)NC3CCCCC3)c2)cc1,active: 23.1 µM,
CCN(CC)CCCN1C(=O)c2oc3ccccc3c(=O)c2C1c1cccc(OC)c1OC (stereo not given),,inactive: -3.89%
COc1ccc([N+](=O)[O-])cc1/C=N/NC(=O)/C(=C\c1cccs1)NC(=O)c1ccccc1,"inconclusive [inhibitor, single point]",
COc1ccccc1NC(=O)c1ccc(S(=O)(=O)N(C)c2ccccc2OC)cc1,"inconclusive [inhibitor, single point]",
COc1ccc(-c2c(C)nn3c(N)c(-c4ccccc4)cnc23)cc1OC,active: 5.8 µM,
CCOc1cc(/C=C2/C(=O)ON=C2C)cc(Br)c1O,"inconclusive [inhibitor, single point]",
CCN1CCN(c2ncc3c(n2)CCN(Cc2ccc(OC(C)C)cc2)C3)CC1,"inconclusive [inhibitor, single point]",
COc1cccc(N2CCN(C(=O)c3ccc(CS(=O)c4ccc(C)cc4)o3)CC2)c1 (stereo not given),active: 0.58 µM,
CCOC(=O)C1(Cc2cccc(OC)c2)CCN(Cc2cccn2-c2ccccn2)CC1,,inactive: -24.7%
O=C(COC(=O)C1CCC(=O)N1)Nc1ccccc1Br (stereo not given),"inconclusive [inhibitor, single point]",
COc1ccc(Cc2nnc(N)s2)cc1OC,,inactive: 14.5%
CCOC(=O)c1ccc(-c2ccc(/C=C(\C#N)C(=O)Nc3ccc(OCC)cc3)o2)cc1,,inactive: -5.81%
Cc1nn(C)c(C)c1S(=O)(=O)N1CCC(C(=O)NC2CCCc3ccccc32)CC1 (stereo not given),,inactive: -2.11%
Cc1cc2nc3c(nc2cc1C)C(O)=C3O,"inconclusive [inhibitor, single point]",
O=C(CN1CCN(S(=O)(=O)c2ccccc2)CC1)Nc1ccc([N+](=O)[O-])cc1,active: 18.4 µM,
CCc1cccc2sc(N(CCCN3CCOCC3)C(=O)CS(=O)(=O)c3ccccc3)nc12,"inconclusive [inhibitor, single point]",
Cc1ccc(-c2nnc(-n3nc(C)cc3C)c3ccccc23)cc1,"inconclusive [inhibitor, single point]",
Cc1cccc(-c2nc(SCCCOc3ccc(Cl)c(C)c3)n3[nH]c(=O)cc3n2)c1,"inconclusive [inhibitor, single point]",

Structure (SMILES),Potency,"activity change, negative = growth inhibition"
COc1ccc(CCC(C)NCc2cccc(Br)c2)cc1 (stereo not given),"inconclusive [inhibitor, single point]",
CCOc1ccc(S(=O)(=O)Nc2ccc(OC)nc2)cc1,"inconclusive [inhibitor, partial curve]",
CSc1cccc(NC(=O)c2ccc(CN3CCc4ccccc4C3)cc2)c1,"inconclusive [inhibitor, partial curve]",
CCc1ccccc1NC(=O)C(=O)NCC(c1cccnc1)N1CCN(c2ccccc2F)CC1 (stereo not given),"inconclusive [inhibitor, single point]",
COc1ccc(OC)c(S(=O)(=O)N2c3cc(F)ccc3CCC2C)c1 (stereo not given),active: 7.31 µM,
COc1cc2c(cc1OC)-c1c(OC)c(OC)cc3ccnc(c13)C2=O,active: 4.22 µM and active: 4.11 µM,
CN(C)c1ccc(-c2nc3ccccn3c2/N=C/c2ccc(Br)cc2)cc1,"inconclusive [inhibitor, single point]",
CCCCC(=O)N(C)c1c(CC)nc2c(OCC(=O)C(C)(C)C)cccn12,,inactive: -0.306%
O=C(NNc1nc2c(F)cccc2s1)C1COc2ccccc2O1 (stereo not given),"inconclusive [inhibitor, single point]",
Cc1ccc(NC(=O)C2CCC(CNS(=O)(=O)c3csc(C(N)=O)c3)CC2)cc1Cl (stereo not given),"inconclusive [inhibitor, full curve]",
CCCSc1nc2sc3c(c2c(=O)n1Cc1ccccc1)CC(C)(CC)OC3 (stereo not given),active: 18.4 µM,
CCOc1ccccc1NC(=O)CSc1nc2cc(O)ccc2c(=O)n1-c1ccc(OC)c(OC)c1,active: 18.4 µM,
Cc1csc2nc(CNC(=O)C3CC=CCC3C(=O)O)cn12 (stereo not given),,inactive: 20.7%
COCC(=O)OCC(=O)Nc1ccc(Cl)cc1[N+](=O)[O-],"inconclusive [inhibitor, full curve]",
COc1cccc(NC(=O)c2cncs2)c1,,inactive: -6.88%
CC1=NN(C(=O)c2ccncc2)C(=O)C1N=Nc1ccc2ccccc2c1 (stereo not given),"inconclusive [inhibitor, partial curve, poor fit]",
Cc1ccc(C2(C)NC(=O)N(CC(=O)N(C)CC(=O)Nc3cccc(F)c3)C2=O)cc1 (stereo not given),"inconclusive [inhibitor, single point]",
Brc1cccc[n+]1CCCCCC[n+]1ccccc1Br,"inconclusive [inhibitor, single point]",
Cc1ccc(NS(=O)(=O)c2ccc3c(c2)CCCN3C(=O)C2CCC2)c(C)c1,"inconclusive [inhibitor, single point]",
C/C(=N\OC(=O)c1ccccc1)c1cc(-c2ccc(Cl)cc2)no1,"inconclusive [inhibitor, partial curve]",
Cc1nc(SCC(=O)Nc2cc(C)on2)c2c3c(sc2n1)CCCC3,"inconclusive [inhibitor, single point]",
O=C(Cc1ccc([N+](=O)[O-])cc1)N1CCCc2ccccc21,,inactive: -4.82%
